Laboratory results reported in PubChem BioAssay AID1159614 (National Center for Advancing Translational Sciences (NCATS), 2016).
Out of some 45,000 compounds screened, about 65 (0.1%) were called active. The call rests on the fitted dose curve; in most records, active means well fitted activation curve with a large enough effect; inconclusive means small, poorly fitted or top-dose-only effect; inactive means no such curve, though single readings can be large or run the other way. This is one part of the list.

The compounds below were run against Galactocerebrosidase (Homo sapiens) (UniProt P54803) (assay: A Novel Cell-Based Assay to Identify Small Molecules for B -Galactocerebrosidase). Details: 145M-Twi-hGALC-G270D cells (Twitcher mouse brain line with human GALC G270D), HMU-beta-Gal fluorescence, 48 h; series mostly up to 57.5 µM; activation: at the top concentration.
Outline: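 Fluorescence readout: HMU-β-gal cleavage by mutant GALC (0.1 mM final, citrate/phosphate pH 5.2 with 1 mg/mL taurocholate), stopped with carbonate/bicarbonate plus Triton X-100. Cells: murine Twitcher 145M-Twi expressing human G270D GALC; qHTS for activators.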
Further: 0% is about no effect; nearly all actives have a fitted effect of over 65% in size.

UniProt P54803, sequence (P54803 whole entry, looked up): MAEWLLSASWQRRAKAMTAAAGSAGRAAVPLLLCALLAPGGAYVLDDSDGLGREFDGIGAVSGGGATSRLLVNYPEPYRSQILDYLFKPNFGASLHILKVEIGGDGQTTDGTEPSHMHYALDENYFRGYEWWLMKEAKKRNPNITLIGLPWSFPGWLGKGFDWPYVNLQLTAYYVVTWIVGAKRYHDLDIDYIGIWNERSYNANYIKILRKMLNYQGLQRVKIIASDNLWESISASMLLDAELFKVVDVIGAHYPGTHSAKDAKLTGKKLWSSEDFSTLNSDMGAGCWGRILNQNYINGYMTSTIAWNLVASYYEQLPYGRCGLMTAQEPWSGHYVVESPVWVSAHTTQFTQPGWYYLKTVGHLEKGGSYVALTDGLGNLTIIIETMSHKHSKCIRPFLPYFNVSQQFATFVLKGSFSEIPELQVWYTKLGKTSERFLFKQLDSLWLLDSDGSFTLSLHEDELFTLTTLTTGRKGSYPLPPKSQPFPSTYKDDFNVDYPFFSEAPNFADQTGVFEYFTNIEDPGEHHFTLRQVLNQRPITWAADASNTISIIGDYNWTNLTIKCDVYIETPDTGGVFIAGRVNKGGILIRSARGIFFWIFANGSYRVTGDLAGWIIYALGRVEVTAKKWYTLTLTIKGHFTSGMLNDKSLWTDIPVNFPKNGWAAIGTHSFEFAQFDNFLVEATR

activation, inactive:
Cc1c(CNC2CCCCCC2)c(C(=O)O)c(C)n1Cc1ccc(F)cc1Cl -16.2%
COc1ccc(S(=O)(=O)NCCc2csc3nc(-c4ccc(OC)c(OC)c4)nn23)cc1C -3.23%
O=C1CCSc2ccc(S(=O)(=O)Nc3ccc(Cl)c(C(F)(F)F)c3)cc2N1 -36.3%
CC(C)c1ccc(NC(=O)c2ccc(F)c(S(=O)(=O)N3CCCCCC3)c2)cc1 -7.63%
COc1ccc(CNC(=O)c2nc(Cn3nc(C)c(Br)c3C)no2)cc1OC -22.3%
COc1ccc(Cc2nc3ccc(C(=O)NCc4ccc(OC)cc4OC)cc3o2)cc1 3.82%
COc1cc(NC(=O)c2sc3nc4n(c(=O)c3c2C)CCCCC4)cc(OC)c1OC -3.87%
CCCCn1c(=O)c2oc3ccccc3c2n(CC(=O)Nc2cccc(Cl)c2C)c1=O 4.38%
CC(C)(C)c1ccc(C(=O)Nc2cc(-c3nc4ccccc4o3)ccc2Cl)cc1 -12.7%
CCc1ccccc1NC(=O)c1ccc2c(c1)CCN2S(C)(=O)=O -4.35%
CCc1ccccc1NC(=O)C1CCN(S(=O)(=O)c2ccc3[nH]c(=O)ccc3c2)CC1 -18.7%
Cc1ccc(C)c(NC(=O)CSc2nc(-c3ccccc3)cc(=O)[nH]2)c1 0.522%
COc1ccc(CCNC(=O)C(=O)Nc2ccc(C)cc2)cc1OC -11.2%
COc1ccc(N2CCN(S(=O)(=O)c3c(C)[nH]c(=O)[nH]c3=O)CC2)cc1 -10%
CCN(C(=O)c1cc2cc3ccc(OC)cc3nc2o1)c1cccc(C)c1 -13.1%
COc1ccc(-c2nc(C(=O)Nc3ccc(C(C)=O)cc3)nn2-c2cccc(Cl)c2)cc1 -10.3%
CC(=O)c1ccc(Oc2nc(C)nc3c2oc2ccccc23)cc1 -9.9%
O=C(O)Cc1csc(-c2ccc(Cl)cc2)n1 -10.5%
Cc1ccc(-c2nc(C)c(CCNC(=O)c3cccs3)s2)cc1 -34.4%
CC(=O)c1cccc(NC(=O)C2CCN(S(=O)(=O)c3ccc4c(c3)CCCN4C(C)=O)CC2)c1 -13.9%
CCc1cccc(NC(=O)c2cc3c(=O)n(Cc4ccccc4)ccc3nc2C)c1 -5.85%
CC(C)c1ccc(NC(=O)C2CCN(C(=O)c3ccc(F)cc3)CC2)cc1 -16.8%
COc1cc(C(=O)Nc2ccccc2-c2nc(-c3ccccc3)no2)cc(OC)c1OC -21%
Cc1ccc(CN2CCCn3nc(C(=O)NCCc4ccccc4C)cc3C2=O)cc1 -17.2%
Cc1c(C(=O)OCc2ccccc2)[nH]c2c1C(=O)CC(c1ccc(C(C)(C)C)cc1)C2 (configuration not stated) -15%
Cc1ccc(-n2nc(C(=O)Nc3ccc(F)cc3F)c3c4ccccc4n(C)c3c2=O)cc1 -18.9%
Cc1cccc(N(C)c2nc3ccc(C(=O)c4ccccc4)cc3n3c(C)nnc23)c1 5.72%
CCN(CC)c1nc2ccccc2nc1C(=O)Nc1ccc(C(C)=O)cc1 -15.7%
Cc1ccc(C)c(NC(=O)CN(C)S(=O)(=O)c2cccc3nsnc23)c1 -10.6%
CCCCCOc1ccc(/C=C/C(=O)Nc2sc(C)c(C)c2C(=O)OCC)cc1OC -4.61%
COc1ccccc1NC(=O)Cn1cc(S(=O)(=O)Cc2ccccc2)c2ccccc21 -7.94%
CC(C)(C)C1CCc2c(sc(NC(=O)c3cc4ccccc4c(=O)o3)c2C(N)=O)C1 (configuration not stated) -8.48%
Cc1ccc(C)c(NC(=O)Cn2c(=O)n(CCC(C)C)c(=O)c3cccnc32)c1 -8.18%
COc1ccc(NC(=O)Cn2nnc(C(=O)NCc3cccs3)c2N)cc1 -1.74%
Cc1ccc(NC(=O)CSc2nc(=O)n(Cc3cccnc3)c3c2CCC3)cc1F -6.04%
CCN(CC)CCNC(=O)Cn1ncc2c3ccccc3n(Cc3ccc(Cl)cc3)c2c1=O -10%
Cc1ccc(-c2csc(-c3nc(-c4ccc(Br)s4)cs3)n2)cc1 -13.9%
CCC(CC)C(=O)Nc1ccc2nc(SCC(=O)N3CCCC3)sc2c1 -9.19%
COc1ccc(Cc2nc3ccc(C(=O)NCc4ccccc4C)cc3o2)cc1 3.82%
COc1ccc(NC(=O)CN2C(=O)CC(c3ccc(C)c(C)c3)=Nc3ccccc32)cc1OC -18.2%
Cc1ccccc1C(=O)N1CC/C(=N\OS(=O)(=O)O)c2ccc(Cl)cc21 -23.5%
Cc1ccccc1Oc1nc2ccccn2c(=O)c1/C=C(\C#N)c1nc2ccccc2[nH]1 -14.9%
CCc1cccc(C)c1NC(=O)c1cc(S(=O)(=O)N(Cc2ccc(C(=O)OC)cc2)Cc2ccc(OC)c(OC)c2)ccc1F -8.76%
Cc1c(C(=O)NCc2ccc(F)cc2)oc2ccc(S(=O)(=O)N3CCCCC3)cc12 -5.45%
Cc1ccc2c(c1)c1c(c(=O)n(-c3cccc(Cl)c3)c(=O)n1CC(=O)NCC1CCCO1)n2C (configuration not stated) -8.69%
CCOC(=O)C1CCCN(c2nc3c(S(=O)(=O)c4ccc(CC)cc4)nnn3c3ccsc23)C1 (configuration not stated) -10.8%
COc1ccc(NC(=O)[C@H]2O[C@@H]3OC(C)(C)O[C@@H]3[C@H]3OC(C)(C)O[C@H]32)c(OC)c1 -7%
CC(C)CCNC(=O)CN1C(=O)CSc2ccc(S(=O)(=O)N3CCC(C)CC3)cc21 -11.2%
Cc1ccc2nc(-c3cccs3)c(Nc3c(C)cccc3C)n2c1 5.94%
CCOC(=O)Cc1ccc(NC(=O)Nc2c[nH]c(=O)[nH]c2=O)cc1 -2.94%
CCc1cccc(NC(=O)CCc2nc3cccnc3n2Cc2ccc(OC)cc2)c1 -6.17%
Cc1ccccc1OCC(=O)Nc1ccc(-c2nc3ccccc3o2)cc1 -17.4%
Cn1c(=O)[nH]c(=O)c2c1nc(N1CCOCC1)n2Cc1ccccc1 -9.27%
Cc1ccc(NC(=O)c2nc(S(C)(=O)=O)ncc2N(Cc2ccc(C(C)(C)C)cc2)Cc2ccco2)cc1C -9.88%
O=S(=O)(c1ccc(OC(F)(F)F)cc1)N1CCC(c2nnnn2-c2ccc(F)cc2)CC1 1.28%
CN(C(=O)CCc1nc(-c2ccccc2F)no1)c1ccc(Cl)cc1 -11.1%
COc1ccc(-c2noc(CSCC(=O)Nc3cc(OC)c(OC)c(OC)c3)n2)cc1OC -4.93%
CCn1cc(C(=O)OCC(=O)Nc2ccc(C)c(Cl)c2)c(=O)c2ccc(C)nc21 -15.7%
CCN1CCSc2ccc(C(=O)NCc3ccc(OC(C)C)cc3)cc21 -10.4%
CCOc1ccc(-c2cc3c(=O)n(CC(=O)NCc4ccc(C)cc4)ccn3n2)cc1 -13.5%
COc1cc(C(=O)NCC(c2ccc3c(c2)OCO3)N2CCOCC2)cc(OC)c1OC (configuration not stated) -19.3%
CCCC(O)c1nc2ccccc2n1CCCOc1ccc(Cl)cc1 (configuration not stated) -34%
CCc1cccc(NC(=O)C2CCCN(c3ncnc4onc(-c5ccc(F)cc5)c34)C2)c1 (configuration not stated) -6.6%
CC(=O)N1c2ccccc2CC1C(=O)N1CCN(c2ccccc2)CC1 (configuration not stated) -0.92%
Cc1ccc(NC(=O)c2c(C)cc(C)nc2SCC(=O)Nc2ccc(Br)cc2)cc1 -11.2%
COc1ccc(N(Cc2cc3ccccc3[nH]c2=O)C(=O)c2cccc(Cl)c2)cc1 -3.43%
CCOC(=O)Cc1ccc(NC(=O)NCc2c(-n3cccc3)sc3c2CCCC3)cc1 -9.11%
CCCCN1CC(c2nc3ccccc3n2CCCCOc2cc(C)ccc2C)CC1=O (configuration not stated) -30.2%
O=C(CS(=O)(=O)c1cccc2nsnc12)Nc1ccccc1Cl -13.4%
CCc1nc2ccc(C(=O)NCCc3ccccc3OC)cc2nc1CC -20.6%
CC1CCCN(C(=O)c2cc3ccc4cccnc4c3[nH]2)C1 (configuration not stated) -14.2%
CCOc1ccc(N2CC(NC(=O)c3ccco3)CC2=O)cc1 (configuration not stated) -9.69%
Cc1cc2nc(-c3cccc(NC(=O)c4cccc5ccccc45)c3)oc2cc1C 25.7%
Cc1cccc(OCC(=O)Nc2cccc(OCc3cc(=O)n4cccc(C)c4n3)c2)c1 3.6%
O=C(/C=C/c1ccccc1)Nc1cc(-c2nc3cc(Cl)ccc3o2)ccc1Cl -5.64%
CCSc1ncc(Cl)c(C(=O)N2CCN(c3ccccc3OC)CC2)n1 -14.5%
CCOCCCNC(=O)c1ccc(-n2c(-c3ccccc3)cc3c2CCCC3)cc1 -18.6%
CCCCNC(=O)c1ccc2c(c1)N(Cc1ccc(F)cc1)C(=O)c1ccccc1S2=O (configuration not stated) 0.746%
COc1cccc(-n2ccnc2SCC(=O)Nc2c(C)cc(C)cc2C)c1 -19.7%
Cc1cc(C)c(NC(=O)Cn2c(=O)c3cccn3c3ccccc32)c(C)c1 -8.4%
COc1ccc(Cn2ccc3nc(C)c(C(=O)Nc4ccc(OC)cc4)cc3c2=O)cc1 -8.79%
COc1ccc(CNC(=O)C2CCN(S(=O)(=O)c3c(C)noc3/C=C/c3ccccc3F)CC2)cc1 1.48%
Cc1cccc(C(=O)OCc2cc(=O)n3ccsc3n2)c1 -1.48%
CC(C(=O)NCCSCc1cccc(Cl)c1)N(c1ccccc1)S(C)(=O)=O (configuration not stated) -30.9%
CC(=O)Nc1nc2n(n1)C(c1ccc(F)cc1)C=C(c1ccc(Cl)cc1)N2 (configuration not stated) -13.4%
COc1ccc(CCNC(=O)CCn2c(=O)c3ccccc3n(Cc3ccccc3F)c2=O)cc1OC 6.64%
Cc1ccc(-n2c(C)cc(C(=O)C(=O)Nc3ccccc3)c2C)c(C)c1 -16.8%
O=C(CSc1nc2c([nH]c3ccccc32)c(=O)n1-c1ccc(Cl)cc1)N1CCc2ccccc21 2.1%
CSc1cccc(NC(=O)c2cnn(-c3ccc(F)cc3)c2-n2cccc2)c1 0.748%
Cc1ccc(-c2nc3c(c(SCc4ccc(Br)cc4)n2)Cc2c(CO)cnc(C)c2O3)cc1 -8.35%
CC(=O)OCC(COC(C)=O)OC(C)=O -15.2%
O=C(Cn1ncn2c(cc3sccc32)c1=O)NCCc1ccccc1 -15.2%
COc1ccc(CCNC(=O)CCc2c(C)c3cc4c(C)c(C)oc4cc3oc2=O)cc1OC -1.95%
Cc1ccc2c(=O)cc(C(=O)Nc3ccc(S(=O)(=O)N(C)c4ccccc4)cc3)oc2c1C -10.3%
CC(C)(C)OC(=O)N1CCC(c2c(C(=O)NCc3ccccc3)cnn2-c2cccc(F)c2)CC1 -15%
CCOc1ccccc1NC(=O)CSc1nnc2[nH]c(=O)cc(C)n12 -12.6%
Cc1cc(O)c(C(c2ccccc2)N2CCCCC2)c(=O)n1Cc1ccco1 (configuration not stated) 0.129%
